Measurements: PMC4336329 (PLoS ONE, 2015)
The campaign covered roughly 310,000 compounds. About 14,000 (4.5%) showed an effect of 50% or more. The effect is printed as a negative number. The list shows a part of the results.

Target: human ether-à-go-go-related gene (hERG) potassium channel (human, UniProt Q12809)
Assay: primary screen, population patch clamp on CHO cells stably expressing hERG
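Note: peak tail current of the secondary pulse compared with the same well before compound.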

Chain of human ether-à-go-go-related gene (hERG) potassium channel (Q12809 whole entry, looked up): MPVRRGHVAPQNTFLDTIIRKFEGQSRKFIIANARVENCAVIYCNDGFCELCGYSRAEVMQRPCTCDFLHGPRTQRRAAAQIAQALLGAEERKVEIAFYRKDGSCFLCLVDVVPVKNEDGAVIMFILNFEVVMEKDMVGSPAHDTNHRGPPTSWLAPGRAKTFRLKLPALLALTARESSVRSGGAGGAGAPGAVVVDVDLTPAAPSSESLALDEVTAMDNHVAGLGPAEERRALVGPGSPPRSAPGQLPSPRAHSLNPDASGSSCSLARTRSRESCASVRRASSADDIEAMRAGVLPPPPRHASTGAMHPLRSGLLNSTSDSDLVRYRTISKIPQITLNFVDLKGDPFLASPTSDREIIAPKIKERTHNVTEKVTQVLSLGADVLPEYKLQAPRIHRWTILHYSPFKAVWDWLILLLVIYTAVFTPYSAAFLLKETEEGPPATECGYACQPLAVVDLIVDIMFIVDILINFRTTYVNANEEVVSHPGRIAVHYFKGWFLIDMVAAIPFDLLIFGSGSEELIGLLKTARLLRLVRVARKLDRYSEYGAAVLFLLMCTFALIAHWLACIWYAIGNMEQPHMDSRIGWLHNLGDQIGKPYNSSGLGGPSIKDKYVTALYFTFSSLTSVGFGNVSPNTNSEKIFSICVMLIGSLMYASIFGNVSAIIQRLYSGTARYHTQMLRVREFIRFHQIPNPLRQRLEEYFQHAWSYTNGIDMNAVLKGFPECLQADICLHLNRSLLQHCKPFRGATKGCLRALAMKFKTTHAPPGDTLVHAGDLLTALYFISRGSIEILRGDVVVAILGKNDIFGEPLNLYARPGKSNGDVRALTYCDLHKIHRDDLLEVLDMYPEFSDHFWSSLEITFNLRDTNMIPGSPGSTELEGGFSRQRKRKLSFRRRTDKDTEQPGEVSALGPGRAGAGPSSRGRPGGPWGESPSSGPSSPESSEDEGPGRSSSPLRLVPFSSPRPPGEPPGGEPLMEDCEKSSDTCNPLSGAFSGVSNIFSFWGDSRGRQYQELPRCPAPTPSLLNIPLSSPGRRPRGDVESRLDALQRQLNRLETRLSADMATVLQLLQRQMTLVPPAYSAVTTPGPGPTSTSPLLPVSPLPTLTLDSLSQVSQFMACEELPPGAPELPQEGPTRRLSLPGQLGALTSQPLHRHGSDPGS

SMILES	hERG current change (%, negative = inhibition) at 10uM
CCOc1ccc(NS(=O)(=O)c2ccc(NC(=O)C3CCCO3)cc2)cc1 (stereo not drawn)	20.7%
Cl.OC(Cc1ccccc1)(c1ccccc1)C1CN2CCC1CC2 (stereo not drawn)	-49.7%
Cc1ccc(NC(=O)c2ccc3c(c2)[nH]c(=O)n3C(C)C)cc1	4.21%
CCOC(=O)c1ccc(NS(=O)(=O)c2ccc3c(c2)NC(=O)CCS3)cc1	21%
CCOC(=O)c1ccc(NC(=S)N2CCN(c3ccc(N4CCOCC4)nn3)CC2)cc1	3.71%
Cc1ccc2nc(C(=O)N3CCCC(Nc4ccc(F)cc4)C3)cn2c1 (stereo not drawn)	2.9%
CN1C(=O)/C(=C/c2cccc(Cl)c2)Sc2ccc(C(=O)N3CCCC3)cc21	-49.7%
COc1ccc(Nc2ccc([N+](=O)[O-])c3nonc23)c(OC)c1	17.8%
O=P(O)(O)O.c1ccc(CN(CC2=NCCN2)c2ccccc2)cc1	-17.3%
COc1ccc(-c2ccc(N(C)C)cc2)cc1[C@H]1[C@H]2C=CC[C@@H](C)[C@@H]2C(=O)N1Cc1ccccc1	10.1%
C=CCN1C(=O)/C(=C/c2ccc(N3CCOCC3)o2)C(=O)NC1=S	-21.7%
Cc1ccc(NC(=O)c2ccc(COc3ccccc3[N+](=O)[O-])o2)nc1	-0.793%
Cc1ccc(NC(=O)N2CCSc3ccccc32)cc1	-9.08%
COc1ccc(C(C)=O)cc1CSCCC(=O)O	24.8%
O=C(O)Cn1cnc2scc(-c3ccccc3)c2c1=O	7.11%
O=C(CCc1nc(-c2ccccc2Cl)no1)NC1CCCCC1	10.6%
Cc1cc(C)n(CCC(=O)N2c3ccccc3CC2C)n1 (stereo not drawn)	10.3%
COc1ccccc1OCCn1cc(C(=O)O)c2ccccc21	3.25%
COc1ccc(CCn2c(=N)c(C(=O)NCC3CCCO3)cc3c(=O)n4ccccc4nc32)cc1 (stereo not drawn)	-77.9%
CCOC(=O)N1CCN(C(=O)/C(=C/c2ccccc2OC)NC(=O)c2ccccc2)CC1	-37.9%
COc1ccccc1C(=O)Nc1cc(C)c(OCC(=O)N2CCOCC2)c(C)c1	1.57%
COc1ccc2cc3cc(C(=O)NCCCN4CCOCC4)oc3nc2c1	-5.55%
O=C(NCc1ccccc1)C(=O)NCC1OCCN1S(=O)(=O)c1cccs1 (stereo not drawn)	5.82%
CCOC(=O)N1CCN(S(=O)(=O)c2c(C)nn(C)c2C)CC1	16.4%
O=C(CSc1nn(-c2ccc(F)cc2)c(=S)s1)NCC1CCCO1 (stereo not drawn)	-15.7%
COCC(=O)N/N=C(\C)CC(=O)Nc1ccccc1C(N)=O	-0.965%
CC1CCC(NC(=O)CC(NC(N)=O)c2ccccc2Cl)CC1 (stereo not drawn)	8.04%

SMILES	hERG current change (%, negative = inhibition) at 10uM
CSCCNC(=O)Nc1c(-c2c(Cl)cccc2Cl)noc1C	14.4%
CCc1c(C)sc(NC(=O)CSc2nc3c(c(C(F)(F)F)n2)CCc2ccccc2-3)c1C#N	-2.8%
Cc1cc(C)c(S(=O)(=O)Nc2cccc(-n3cnnn3)c2)c(C)c1	-9.83%
CCN(CC)S(=O)(=O)c1ccc(C)c(NC(=O)CNCc2ccccc2OC)c1.O=C(O)C(=O)O	-37.7%
Cc1cccc(Nc2nc(NCCO)nc(N3CCCC3)n2)c1	-2.23%
COc1ccccc1NC(=O)c1ccccc1NC(=O)c1ccccc1C(=O)O	8.81%
COc1ccc(CNC(=O)C(c2ccco2)N(C(=O)c2ccccn2)c2ccccc2)cc1 (stereo not drawn)	-7.52%
O=C(CN1CCOCC1)Nc1nc(-c2ccccc2)cs1	4.68%
Cc1nnc(SCc2ccccc2)nc1/C=C/NOCc1ccc(Cl)cc1Cl	13.9%
CCN1CCN(Cc2ccc(NC(=O)CC3Oc4ccc(C)cc4NC3=O)cc2)CC1 (stereo not drawn)	5.84%
CN1C(=O)N(C)C(c2ccccc2Cl)C2=C1CC(C)(C)CC2=O (stereo not drawn)	14.2%
COC(=O)COc1cccc(NC(=O)c2cccs2)c1	2.46%
Cc1ccc(OCc2nnc(SCC(=O)c3cccs3)n2-c2ccccc2)cc1C	11%
CCOc1cc(C(=O)Nc2ccc(C)cc2O)ccc1OCC(=O)N1CCOCC1	-13.2%
COc1ccccc1C1CCN(c2ccc([N+](=O)[O-])c(OC)c2)CC1	-8%
CN1C(=O)C(/C(N)=N/NC(=O)c2ccccc2)C2CC1(C)Oc1ccccc12 (stereo not drawn)	17.1%
Cc1ccc(C)c(NS(=O)(=O)c2ccc(-c3ccc(=O)[nH]n3)o2)c1	3.23%
CC(=O)Nc1ccc(NC(=O)c2ccc(S(=O)(=O)N(C)c3ccccc3)cc2)cc1	15.2%
O=C(NC(Nc1nc2ccc([N+](=O)[O-])cc2s1)(C(F)(F)F)C(F)(F)F)c1ccccc1Cl	-23.1%
O=C(Cn1nc(CNc2ccc(Br)cc2)[n+]2c1CCCCC2)c1ccc([N+](=O)[O-])cc1.[Br-]	-19.6%
COC(=O)c1c(C)[nH]c(O)c1C=Nc1ccc(C#N)cc1	-13.4%
COc1cc(/C=N/n2cnnc2)ccc1OCCOc1ccccc1	-3.33%
O=C(CCn1cnnn1)N1CCCC(Nc2ccc(F)c(F)c2)C1 (stereo not drawn)	17.7%
C=CCOC(=O)C1=C[C@@H](C2CCCCC2)C[C@@H](OCc2ccc(CO)cc2)O1	3.03%
O=C(CN(Cc1ccccc1)S(=O)(=O)c1ccc(Br)cc1)NCc1ccco1	-51.6%
Cc1cccc(-c2ncc(CN3CCCC(CO)(Cc4cccc(Cl)c4)C3)cn2)c1 (stereo not drawn)	-20.6%
COc1ccc(S(=O)(=O)N2CCCCC2)cc1NC(=O)CSc1ncccn1	-33.4%
